Screen size: about 120,000 compounds; about 5,300 (4.4%) were called active. Inconclusive results, whose numbers are uncertain, are shown with a selection of clear calls. The call rests on the fitted dose curve; in most records, active means well fitted inhibition curve with a large enough effect; inconclusive means small, poorly fitted or top-dose-only effect; inactive means no such curve, though single readings can be large or run the other way. Potencies beside an inconclusive call are fits to weak or partial responses and may not hold up.
test: qHTS Primary assay for Inhibitors of Plasmodium falciparum Dd2 growth in vitro; further: nearly all actives have a fitted effect of over 65% in size;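 on activity, negative = inhibition: plate controls were DMSO vehicle for no effect and reference drug for full effect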; settings: P. falciparum Dd2 growth, SYBR Green, 72 h; activity, negative = inhibition: at 28.9 µM (top of the series) unless noted; series mostly up to 28.9 µM
Procedure, shortened: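 Readout: SYBR Green fluorescence, 485 nm excitation, 535 nm emission, after ~16 h lysis at 37C. Before that, Dd2-infected red cells (2.5% hematocrit) grew 72 h with compound, 29 uM top final concentration.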
Potency means the concentration at half of the fitted maximal effect; tags describe the fitted curve by direction and shape.

Row | Compound | Potency | activity, negative = inhibition
1 | CC(CNC(=O)c1ccc(Nc2nc3ccccc3n3nnnc23)cc1)c1ccccc1 (stereo unspecified) | inconclusive: 10 µM [inhibitor, single point] | –
2 | Cc1nc(CNC(=O)CC2C(=O)NCCN2Cc2ccccn2)n[nH]1 (stereo unspecified) | inconclusive: 1.78 µM [inhibitor, partial curve, poor fit] | –
3 | CC(NC(=O)Cc1ccc(N(Cc2ccccc2)C(=O)c2ccco2)cc1)c1ccccc1 (stereo unspecified) | inactive | –
4 | Cc1noc(C)c1-c1cc2cc(CN(C)C)oc2c(-c2ccc([S+](C)(=O)[O-])cc2)n1 | active: 8.91 µM | –
5 | O=C(NCCCN1CCCCC1)c1ccc2c(c1)sc1nc(-c3ccc(F)cc3)cn12 | active: 2.82 µM | –
6 | CCOC(=O)c1c(-c2ccc(C)cc2C)csc1NC(=O)c1ccccc1Cl | inconclusive: 1 µM [inhibitor, single point] | –
7 | COc1ccc(CN2CCNC(=O)C2CC(=O)NCc2ccncc2)cc1OC (stereo unspecified) | inactive | –
8 | O=C(C1CCC1)N1C[C@@H]2CC[C@H](C1)N(C(=O)Nc1ccc(F)c(F)c1)C2 | inactive | –
9 | Cc1ccc(N2C(=O)CSC23C(=O)N(CC(=O)Nc2ccc(C)cc2C)c2ccccc23)cc1 (stereo unspecified) | inconclusive: 8.91 µM [inhibitor, single point] | –
10 | COc1ccc(NC(=O)C2CCN(c3cc(C(F)(F)F)ncn3)CC2)cc1OC | active: 11.2 µM | –
11 | Cc1ccsc1C(=O)N1CCC2(CC1)CC(N(Cc1ccccc1)C1CC1)CCO2 (stereo unspecified) | inconclusive: 7.08 µM [inhibitor, partial curve, poor fit] | –
12 | Cc1ccc(C)c(CN2C(=O)NC3(CCCN(C(=O)c4ccc(C)c(F)c4)C3)C2=O)c1 (stereo unspecified) | inconclusive: 10 µM [inhibitor, single point] | –
13 | COCCn1cnc2ccc(-c3ccc(F)c(Cl)c3)nc2c1=O | inconclusive: 1 µM [inhibitor, partial curve, poor fit] | –
14 | COc1ccccc1-c1cc(-c2ccncc2)c2cncn2c1 | inconclusive: 14.1 µM [inhibitor, single point] | –
15 | CCCn1c2ccccc2c2cnn(CC(=O)NC(C)CC)c(=O)c21 (stereo unspecified) | inactive | –
16 | COc1ccc(OC(=O)CSc2nnc(-c3ccc(F)cc3)o2)cc1 | inactive | –
17 | CCOc1ccc(C(=O)N2CCCC(n3cc(-c4nc(C(C)C)no4)nn3)C2)cc1 (stereo unspecified) | inconclusive: 3.98 µM [inhibitor, single point] | –
18 | COc1cccc(CN2CC[C@@](C)(O)[C@H](N3CCCC3)C2)c1 | inconclusive: 1.26 µM [inhibitor, partial curve, poor fit] | –
19 | O=C(CN(c1cccc(C(F)(F)F)c1)S(=O)(=O)c1ccccc1)Nc1cccc(Cl)c1 | inconclusive: 17.8 µM [inhibitor, single point] | –
20 | Cc1cccc(N2Cc3c(ncnc3N3CCN(Cc4ccccc4)CC3)N(C)CC2=O)c1 | inactive | –
21 | COCCOc1cc(C)c2c(c1C)C[C@H](C(C)C(=O)NCc1cccs1)CC2 (stereo partly specified) | inconclusive: 3.16 µM [inhibitor, partial curve, poor fit] | –
22 | Cc1ccccc1Oc1ncccc1CNCc1cccc(O)c1 | active: 12.6 µM | –

Row | Compound | Potency | activity, negative = inhibition
23 | COc1ccccc1CNC(=O)C(=O)NCC(c1cccnc1)N1CCN(c2ccc(F)cc2)CC1 (stereo unspecified) | inconclusive: 17.8 µM [inhibitor, single point] | –
24 | Cc1cccc(S(=O)(=O)N2CCc3c(C(=O)NCCCN4CCCCC4)cccc32)c1 | inconclusive: 1.12 µM [inhibitor, partial curve, poor fit] | –
25 | COc1ccc(C(=O)NC[C@@H]2C=C(C)[C@H](Cc3nnc(-c4cncn4C)o3)C[C@H]2C(C)C)cc1 | inconclusive: 2.51 µM [inhibitor, partial curve, poor fit] | –
26 | CC(=O)Nc1ccc(-c2ccc(=O)n3c2[C@@H]2C[C@@H](CN(S(=O)(=O)c4ccc(F)cc4)C2)C3)cc1 | inconclusive: 1.41 µM [inhibitor, partial curve, poor fit] | –
27 | COc1cc(C)c(-c2nc(CN3CCN(C)C(=O)C3)c(C)o2)cc1C | inactive | –
28 | COc1ccc(-c2nc3ccccc3o2)cc1NC(=O)c1ccc(OCC(C)C)cc1 | inconclusive: 17.8 µM [inhibitor, single point] | –
29 | CSc1ccc(C2c3[nH]c4ccccc4c3CCN2C(=O)CCC2CCCC2)cc1 (stereo unspecified) | inconclusive: 10 µM [inhibitor, single point] | –
30 | COC(=O)c1c(-c2cccs2)csc1NC(=O)c1ccc(C(C)(C)C)cc1 | inconclusive: 14.1 µM [inhibitor, single point] | –
31 | Cc1nc(-c2ccco2)cc([C@H]2CN3CC[C@H]2C[C@@H]3CNC(=O)Cc2cccs2)n1 | inconclusive: 31.6 µM [inhibitor, single point] | –
32 | COc1ccc(C(=O)N[C@@H]2CCC[C@@H]2C(=O)NCc2ccccc2C(F)(F)F)cc1 | inconclusive: 3.55 µM [inhibitor, single point] | –
33 | CCN(CC)C(=O)N1CCCC(Cc2ncc(C)n2Cc2ccccc2)C1 (stereo unspecified) | inconclusive: 0.891 µM [inhibitor, partial curve, poor fit] | –
34 | Cc1noc(C)c1S(=O)(=O)N1CCC2(C1)C(=O)N(C)c1ccccc12 (stereo unspecified) | inactive | –
35 | COCCN1C(=O)c2cccn2CC1CNC(=O)c1cccc(F)c1 (stereo unspecified) | inactive | –
36 | O=C1NCc2ccccc2CC12CCN(Cc1ccc(F)cc1)C2 (stereo unspecified) | – | inconclusive: -140% [inhibitor]
37 | CCC1c2nccn2CCCN1C(=O)c1ccc(OC)nc1OC (stereo unspecified) | inconclusive: 15.8 µM [inhibitor, single point] | –
38 | COc1ccc(NC(=O)N(C)CC2CCOCC2)cc1F | inactive | –
39 | Cn1nccc1OCc1cn2c(=O)n(C)cc(-c3cccc(OCc4ccccc4)c3)c2n1 | inconclusive: 2.51 µM [inhibitor, full curve] | –
40 | CC[S+](=O)([O-])NC1CCN(C(=O)N2CC3CC(C2)[C@H]2CCCC(=O)N2C3)CC1 (stereo partly specified) | inactive | –
41 | COc1ccc2cc3c(N)nn(C(=O)c4ccc(F)cc4Cl)c3nc2c1 | inconclusive: 11.2 µM [inhibitor, single point] | –
42 | Cc1cn2nnc(C(=O)NCC(C)c3ccccc3)c2c(=O)[nH]1 (stereo unspecified) | inconclusive: 17.8 µM [inhibitor, single point] | –
43 | COc1ccc(-c2cc([C@H]3CN4CC[C@H]3C[C@@H]4CNS(=O)(=O)Cc3ccccc3)n(C)n2)cc1OC | active: 11.2 µM | –
44 | Cc1noc(-c2ccccc2OC2CCNC2)n1 (stereo unspecified) | inactive | –

Row | Compound | Potency | activity, negative = inhibition
45 | Cc1ccc(Cl)cc1N1CCN(C(=O)c2cc(S(=O)(=O)N3CCCCC3)cn2C)CC1 | inconclusive: 10 µM [inhibitor, single point] | –
46 | COc1ccc(S(=O)(=O)N2CCC3(CC2)CC(N(C)Cc2ccccc2)CCO3)cc1 (stereo unspecified) | active: 11.2 µM | –
47 | O=C(Nc1ccnn1C1CCN(CCO)CC1)c1ccccc1Cl | inactive | –
48 | COC(=O)c1ccc(CSc2nc3ccncc3n2Cc2ccc(F)cc2)cc1 | inconclusive: 10 µM [inhibitor, single point] | –
49 | O=C(NC[C@H]1O[C@H](Cc2cc(COc3ccccc3)on2)CC[C@@H]1O)Nc1cccc(F)c1 | inconclusive: 1.12 µM [inhibitor, partial curve, poor fit] | –
50 | CN1CCCCCCN(C(=O)CCc2ccccc2)[C@H]2CCC[C@H]2C1=O | inconclusive: 10 µM [inhibitor, partial curve] | –
51 | OCc1ccc(CN2CCCC(CCc3c(F)cccc3F)C2)o1 (stereo unspecified) | inconclusive: 2 µM [inhibitor, partial curve] | –
52 | CC(C)c1noc(-c2cn(C3CCN(C(=O)COc4ccc(F)cc4)CC3)nn2)n1 | active: 10 µM | –
53 | Cc1cc(C(=O)N2CCOC[C@H](Oc3cnccn3)C2)c(C(F)(F)F)o1 | inactive | –
54 | COc1cccc(-c2csc(CN3CCCC(C)(NC(C)=O)C3)c2)c1 (stereo unspecified) | inconclusive: 3.55 µM [inhibitor, single point] | –
55 | COc1ccc(-c2nc(-c3nnn4c3COC(c3ccccc3Cl)C4)no2)cc1OC (stereo unspecified) | inconclusive: 1.12 µM [inhibitor, partial curve, poor fit] | –
56 | O=C(C1CCOCC1)N1CCC(Oc2cnc3c(ccn3-c3cncnc3)c2)CC1 | inconclusive: 35.5 µM [inhibitor, single point] | –
57 | O=C(c1ccc(F)cc1Cl)N1Cc2cnn(Cc3ccc(F)cc3)c2C1 | inconclusive: 12.6 µM [inhibitor, single point] | –
58 | CCNC(=O)N[C@H]1[C@H](O)[C@@H](Sc2ccccc2)[C@@H]2OC[C@H]1O2 | inconclusive: 3.16 µM [inhibitor, single point] | –
59 | Fc1ccc(Cc2cn3cc(-c4ccc(F)cc4)nc3s2)cc1 | inactive | –
60 | COc1cc(NC(=O)c2cc3cc4cc(OC)ccc4nc3o2)cc(OC)c1 | inconclusive: 17.8 µM [inhibitor, single point] | –
61 | O=C(Cn1c(=O)oc2ccccc21)NCC1Cn2cccc2C(=O)N1Cc1ccccc1 (stereo unspecified) | inconclusive: 10 µM [inhibitor, single point] | –
62 | Cc1ccc(-n2nc(C)c3c(C)c(CCC(=O)NCc4ccccc4Cl)c(C)nc32)cc1 | active: 5.62 µM | –
63 | CC1=C[C@@H](CN2CCOCC2)[C@H](C(C)C)C[C@H]1Cc1nnc(-c2ccncc2)o1 | inactive | –
64 | COc1ccc(-c2nc(CN3CCC(F)(F)CC3)c(C)o2)c(OC)c1C | inconclusive: 10 µM [inhibitor, single point] | –
65 | COc1ccc(CNC(=O)C[C@@H]2C[C@H]3O[C@H](CN)[C@@H](O)[C@H]3O2)cc1 | inactive | –
66 | C#CCOc1ccc(C(=O)N[C@@H]2CN(Cc3cccc(OC)c3)CCC[C@H]2O)cc1 | inconclusive: 8.91 µM [inhibitor, partial curve, poor fit] | –
